± gives the standard deviation of the averaged measurements. Over roughly 33,000 sequences, “E-score (dimensionless, -0.5 to 0.5)” has its median near -0.046; the highest 2% begin near 0.36. The list shows a part of the results.
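Note: protein at 200 nM in PBS on universal double-stranded arrays.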

This test deals with T1, SpTbr T-box DNA-binding domain (GST fusion).
T1 sequence: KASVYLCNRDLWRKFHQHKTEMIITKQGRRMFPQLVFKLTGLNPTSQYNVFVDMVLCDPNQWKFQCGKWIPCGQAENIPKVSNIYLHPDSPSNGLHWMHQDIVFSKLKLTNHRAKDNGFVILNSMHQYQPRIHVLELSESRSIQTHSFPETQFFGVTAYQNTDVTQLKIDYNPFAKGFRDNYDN
In words: PBM E-score of 8-mer (E-score (dimensionless, -0.5 to 0.5)); Tbr is Tbrain of the sea star Patiria miniata (Pm) or the sea urchin Strongylocentrotus purpuratus (Sp); higher = stronger binding preference; most listed sequences are background and not binding sites. To be noted: the construct has about 5 more residues each side. Here is the method: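 Universal protein-binding microarray (Agilent AMADID 016060, 60-bp probes with a 35-bp variable region) incubated with 200 nM GST-fused Strongylocentrotus purpuratus Tbr T-box DNA-binding domain (residues 362-554) in PBS pH 7.5. Scored for every ungapped 8-mer (given with its reverse complement) as E-score (range -0.5 to 0.5; >0.45 counts as bound) and Z-score of median probe intensity. Two replicate arrays (datasets 1 and 2).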
For GCTCTTAA, the “PBM E-score of 8-mer” value is -0.238 ± 0.0033.
For GGGGTAGA, the “PBM E-score of 8-mer” value is -0.224 ± 0.021.
As for CCTGTGAA, the figure is 0.363 ± 0.011; as for GATAGTCA, 0.0911 ± 0.041.
GTATGGAA: the “PBM E-score of 8-mer” value was -0.231 ± 0.034.
As for AATAGCTA, the figure is -0.175 ± 0.0024.
For the sequence ATCTATAA, the “PBM E-score of 8-mer” value is -0.0607 ± 0.029.
For the sequence AAAGCATA, the “PBM E-score of 8-mer” value is -0.0354 ± 0.0091.
As for GGGCTCCA, the figure is -0.332 ± 0.0097; as for CATATTCC, -0.0387 ± 0.034.
Turning to CAGGTACA, the “PBM E-score of 8-mer” value was -0.171 ± 0.016.
As for CCCGGGGC, the “PBM E-score of 8-mer” value is -0.263 ± 0.021.
For the sequence ATGTACAC, the “PBM E-score of 8-mer” value was -0.0724 ± 0.02.
GAACCATC: the “PBM E-score of 8-mer” value was 5e-06 ± 0.026.
CACGCGGA: the “PBM E-score of 8-mer” value was 0.114 ± 0.052.
For the sequence CCCTGACG, the “PBM E-score of 8-mer” value is -0.0523 ± 0.048.
For GCGGATAA, the “PBM E-score of 8-mer” value was -0.0663 ± 0.071.
With AACTCAGT, the “PBM E-score of 8-mer” value was -0.245 ± 0.0082.
Turning to GACCAAAA, the “PBM E-score of 8-mer” value is -0.133 ± 0.0068.
Take CGGCTCAA: the “PBM E-score of 8-mer” value was -0.251 ± 0.049.
TCACCTCA: the “PBM E-score of 8-mer” value is 0.387 ± 0.0086.
Turning to TATTGTAA, the “PBM E-score of 8-mer” value came out at 0.00715 ± 0.023.
Consider GGATTCAC, for which the “PBM E-score of 8-mer” value came out at 0.159 ± 0.037.
To ATTGGCTG belongs -0.162 ± 0.039; to AGGCCTCC, -0.145 ± 0.03.
Regarding GCTAACCA, the “PBM E-score of 8-mer” value was determined as 0.157 ± 0.0061.
As for AGCCCTAG, the figure is -0.0534 ± 0.036; as for ATGCTAAT, 0.00238 ± 0.0093.
CATTAAAA: the “PBM E-score of 8-mer” value was -0.217 ± 0.079.
For the sequence CGTGATGA, the “PBM E-score of 8-mer” value came to 0.243 ± 0.068.
With GAGCTTAC, the “PBM E-score of 8-mer” value was -0.0865 ± 0.055.
Turning to GGAGGCCC, the “PBM E-score of 8-mer” value is -0.4444 ± 0.004.
To CGCCGGGC belongs 0.0236 ± 0.022; to AAGTCGCT, 0.212 ± 0.069.
To CTTCGAGC belongs 0.0221 ± 0.078; to AAAATCTC, -0.00039 ± 0.027; to CTGACCAC, 0.0737 ± 0.024.
To GCCAAGAC belongs -0.0449 ± 0.068; to ATTCGCCA, 0.235 ± 0.015; to CCAAACTC, -0.216 ± 0.035.
With AACGCTCG, the “PBM E-score of 8-mer” value was 0.133 ± 0.095.
Consider GATGGGGC, for which the “PBM E-score of 8-mer” value is -0.232 ± 0.027.
Consider CGACCTAC, for which the “PBM E-score of 8-mer” value was -0.028 ± 0.012.
Turning to ACCCGCGC, the “PBM E-score of 8-mer” value is 0.163 ± 0.0027.
Take GGCCTACA: the “PBM E-score of 8-mer” value is -0.158 ± 0.0037.
As for CCGTACAG, the figure is -0.251 ± 0.01.
Turning to AAAATCGC, the “PBM E-score of 8-mer” value came to 0.143 ± 0.047.
Consider CGGGGAAC, for which the “PBM E-score of 8-mer” value was -0.248 ± 0.0031.
On to CTGTTCGC, for which the “PBM E-score of 8-mer” value turned out to be 0.322 ± 0.013.
For GTTACTAA, the “PBM E-score of 8-mer” value was -0.0296 ± 0.097.
GCCCACCC: the “PBM E-score of 8-mer” value is -0.095 ± 0.098.
To CTGGGGTA belongs -0.168 ± 0.017; to ATACCGTA, -0.0826 ± 0.059.
As for GTCGGGTA, the figure is 0.057 ± 0.035; as for GGGTCTAA, 0.088 ± 0.045; as for CTTAGATA, -0.166 ± 0.068.
In the case of ATGGCCAT, the “PBM E-score of 8-mer” value was -0.2 ± 0.017.
Regarding AATCGCCT, the “PBM E-score of 8-mer” value was -0.0697 ± 0.07.
As for GTTGTGAA, the figure is 0.4 ± 0.015; as for ACGGGAAT, -0.0347 ± 0.057; as for CTATTGTC, 0.027 ± 0.094.
Consider ACCAAGTA, for which the “PBM E-score of 8-mer” value is 0.0493 ± 0.11.
In the case of TCCTCTCA, the “PBM E-score of 8-mer” value was 0.187 ± 0.1.
Take GATGGAAA: the “PBM E-score of 8-mer” value was found to be 0.0582 ± 0.0093.
On to ACGGCAGG, for which the “PBM E-score of 8-mer” value worked out at 0.221 ± 0.0079.
Take ATTTACTA: the “PBM E-score of 8-mer” value is -0.204 ± 0.046.
Turning to GTATATGA, the “PBM E-score of 8-mer” value is -0.0217 ± 0.0052.
On to CCGGATAA, for which the “PBM E-score of 8-mer” value is -0.143 ± 0.034.
With GGGTTCAA, the “PBM E-score of 8-mer” value is -0.244 ± 0.019.
As to ATTTTTCG, the “PBM E-score of 8-mer” value worked out at 0.135 ± 0.066.
Regarding CTCTCCCA, the “PBM E-score of 8-mer” value came out at 0.0994 ± 0.023.
As for GTTGGAGA, the figure is -0.168 ± 0.033.
On to GACGTTAA, for which the “PBM E-score of 8-mer” value was -0.145 ± 0.1.
Turning to TCAACTAA, the “PBM E-score of 8-mer” value worked out at 0.0104 ± 0.06.
As for ACGATAGG, the “PBM E-score of 8-mer” value was -0.21 ± 0.072.
With AGAGTAAC, the “PBM E-score of 8-mer” value is -0.0382 ± 0.02.
GTCTGGCA: the “PBM E-score of 8-mer” value was determined as 0.00596 ± 0.021.
In the case of AACTTAGG, the “PBM E-score of 8-mer” value is -0.241 ± 0.01.
To TGTTCAAA belongs 0.00431 ± 0.014; to GGGTGCGA, 0.4746 ± 0.00052.
To CCATACAA belongs -0.143 ± 0.053.
As to AAAAATCA, the “PBM E-score of 8-mer” value was 0.0134 ± 0.02.
Take GTTCAGGA: the “PBM E-score of 8-mer” value came out at 0.00196 ± 0.097.
For the sequence CCGAAAAA, the “PBM E-score of 8-mer” value is -0.275 ± 0.042.
Consider GAGACGAC, for which the “PBM E-score of 8-mer” value was -0.0936 ± 0.022.
With CAAATTAC, the “PBM E-score of 8-mer” value stood at 0.079 ± 0.017.
